Test results reported in paper PMC4336329 (PLoS ONE, 2015).
The whole screen tested about 310,000 compounds, of which about 2,200 (0.71%) showed an effect of 50% or more. Effects have a minus sign here. Some of the results follow.

Biological target: human ether-à-go-go-related gene (hERG) potassium channel (human, UniProt Q12809)
Assay: primary screen, population patch clamp on CHO cells stably expressing hERG

Sequence of human ether-à-go-go-related gene (hERG) potassium channel (Q12809 whole entry, looked up): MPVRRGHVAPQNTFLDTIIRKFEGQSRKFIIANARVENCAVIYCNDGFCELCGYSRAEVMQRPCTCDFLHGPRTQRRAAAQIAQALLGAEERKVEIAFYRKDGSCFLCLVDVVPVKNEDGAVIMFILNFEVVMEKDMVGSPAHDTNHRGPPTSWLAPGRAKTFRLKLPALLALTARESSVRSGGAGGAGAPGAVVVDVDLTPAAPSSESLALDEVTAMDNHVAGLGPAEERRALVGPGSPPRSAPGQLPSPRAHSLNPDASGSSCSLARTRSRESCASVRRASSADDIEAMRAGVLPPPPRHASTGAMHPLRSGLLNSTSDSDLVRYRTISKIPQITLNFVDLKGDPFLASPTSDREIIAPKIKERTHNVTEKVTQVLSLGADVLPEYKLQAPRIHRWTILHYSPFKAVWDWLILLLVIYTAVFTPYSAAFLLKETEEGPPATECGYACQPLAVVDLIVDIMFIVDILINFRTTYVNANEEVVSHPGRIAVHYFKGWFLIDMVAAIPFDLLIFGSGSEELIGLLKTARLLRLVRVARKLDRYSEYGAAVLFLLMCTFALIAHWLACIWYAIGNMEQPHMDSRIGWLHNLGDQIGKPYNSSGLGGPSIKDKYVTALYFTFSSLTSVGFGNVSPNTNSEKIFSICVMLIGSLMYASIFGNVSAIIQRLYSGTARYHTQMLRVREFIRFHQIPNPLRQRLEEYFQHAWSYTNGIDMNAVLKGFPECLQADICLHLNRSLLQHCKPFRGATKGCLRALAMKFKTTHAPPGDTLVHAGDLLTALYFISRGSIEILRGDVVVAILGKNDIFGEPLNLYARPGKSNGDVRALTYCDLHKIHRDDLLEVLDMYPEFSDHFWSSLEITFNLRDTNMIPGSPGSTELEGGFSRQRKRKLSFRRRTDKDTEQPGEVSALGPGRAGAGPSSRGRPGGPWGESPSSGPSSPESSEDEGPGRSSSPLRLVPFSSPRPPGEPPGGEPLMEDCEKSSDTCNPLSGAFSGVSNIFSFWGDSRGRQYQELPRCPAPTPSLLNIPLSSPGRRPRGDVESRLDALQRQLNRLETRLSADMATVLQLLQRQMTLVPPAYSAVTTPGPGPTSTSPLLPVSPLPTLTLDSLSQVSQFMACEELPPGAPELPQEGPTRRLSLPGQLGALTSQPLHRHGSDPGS

SMILES | hERG current change (%, negative = inhibition) at 1uM [%]
O=C(NC1=NCCS1)c1sc2ccccc2c1Cl | 11.8
O=c1[nH]c(/C=C/c2ccccc2F)nc2ccccc12 | 12.4
Cc1ccc(C(=O)N/C(=C\c2cccs2)C(=O)NCCCn2ccnc2)cc1C | -32.3
Cc1ccc2c(c1)CCCN2C(=O)c1ccncc1 | 8.11
S=c1[nH]nc(CCCc2n[nH]c(=S)o2)o1 | 12.5
O=C(Cc1noc2ccccc12)Nc1ccc2ccccc2c1 | 10.9
COc1ccc(NC(=O)COC(=O)c2c(-c3ccccc3)noc2C)cc1 | 0.158
O=S(=O)(N1CCCCC1)N1CCN(c2cc(Cl)ccc2Cl)CC1 | 15.6
COc1cc2sc3ccc(C#Cc4ccccn4)cc3c(=O)c2cc1OC | 8.36
COc1ccc([C@H]2CC(=O)C=C(c3cccc(C(F)(F)F)c3)C2)cc1 | 14.9
O=C(NC12CC3CC(CC(C3)C1)C2)c1cc2nc(-c3ccco3)cc(C(F)(F)F)n2n1 | 6.67
COc1ccc(C2=Nc3cc(C)ccc3OC2)cc1 | 18
COC(=O)Nc1ccc(C)c2nsnc12 | -0.405
Cc1nc2sc(C(c3cccs3)N3CCN(c4cccc(Cl)c4)CC3)c(O)n2n1 (centres unmarked) | 4.26
Cc1c(NC(=O)C(C)Sc2nc(N)cc(=O)[nH]2)c(=O)n(-c2ccccc2)n1C (centres unmarked) | 14.5
N#C/C(=C/c1ccc2c(c1)OCO2)C(=O)Nc1ccc(O)cc1 | 5.9
CC1=C(C(=O)OCc2ccccc2)C(c2ccc3ccccc3c2)NC(=O)N1CCCCCC(=O)O (centres unmarked) | 17.2
CS(=O)(=O)Nc1ccc(C2=NN(S(=O)(=O)c3ccc(F)cc3)C(c3ccco3)C2)cc1 (centres unmarked) | -15.6
CCN(c1ccc(NC(=O)COC(=O)c2cc3ccccc3oc2=O)cc1)C(C)C | 6.56
CC(OC(=O)c1cccc(NS(C)(=O)=O)c1)C(=O)Nc1ccc(N2CCOCC2)cc1 (centres unmarked) | 11.9
CCSc1nnc(NC(=O)c2ccccc2C)s1 | 8.78
CSc1nnc(Cn2c(=O)sc3ccccc32)n1-c1ccccc1C | 11.8
CC(=O)CCc1ccc(OC(=O)c2cccnc2)cc1 | 14.5

SMILES | hERG current change (%, negative = inhibition) at 1uM [%]
COCCn1c(SCC(=O)c2ccccc2)nc2ccccc2c1=O | -0.334
COC(=O)c1ccc(COC(=O)CCC(=O)c2cccs2)cc1 | -7.81
C=CCn1c(=O)c(C=Nc2c(OC)cccc2[N+](=O)[O-])c(O)n(CCCC)c1=O | -7.14
COc1ccc(C(CNC(=O)c2oc3ccc(Br)cc3c2C)N2CCCCC2)cc1 (centres unmarked) | 10.6
COc1cc(NC(=O)CSc2nc(C)c(C)c(C)n2)cc(OC)c1 | 11.8
Cn1cc(/C=C(\NC(=O)c2ccccc2Cl)C(=O)N2CCOCC2)c2ccccc21 | 16
CCOC(=O)c1c(NC(=O)CSc2nnc(-c3cccnc3)o2)sc2c1CCC2 | 0.0604
O=C1/C(=C/c2ccccc2[N+](=O)[O-])COc2ccccc21 | 11.1
COc1cc(C(=S)NCc2ccccc2)cc(Br)c1O | 9.88
O=C(c1ccccc1Cl)N1CCc2ccccc2C1 | 3.39
Cc1ccc(C)n1-c1cc([N+](=O)[O-])ccc1-n1ccnc1 | -0.734
C[C@]12CC[C@@H]3c4ccc(OS(=O)(=O)[O-])cc4CC[C@H]3[C@@H]1CCC2=O.[K+] | 19.5
CSc1ccc(NC(=O)N2CC(C)OC(C)C2)cc1 (centres unmarked) | 9.14
CCOC(=O)C1CCN(C(=O)Nc2cccc(Cl)c2)CC1 | 14.7
Cc1ccccc1Nc1nc(CSc2nnnn2-c2ccccc2)cs1 | 3.8
COc1ccc(CN2CCN(CCC(C)C)C(CCO)C2)cc1Cn1cncn1 (centres unmarked) | 10.9
CCOc1ccccc1CN1CCNC(=O)C1CC(=O)NC1CCCCCC1 (centres unmarked) | 5.32
CCN1C(=O)/C(=C2/Sc3ccccc3N2CC)SC1=S | 17.7
COc1ccc(C(=O)Oc2ccc(C(=S)N3CCCC3)cc2)cc1OC | 15
COc1ccc(C(O)c2nc3ccccc3n2C)cc1OC (centres unmarked) | 5.28
CCN1CCN(c2cc(=O)n(C3CCCCC3)c(=O)[nH]2)CC1 | 10.8
CSc1nnnn1-c1ccc(C(=O)O)cc1 | 19.6
CCn1cc(S(=O)(=O)c2ccc(Cl)cc2)c(=O)c2cc(OC)ccc21 | 5.94

SMILES | hERG current change (%, negative = inhibition) at 1uM [%]
Cc1ccc2c(COC(=O)c3ccccc3OC(F)F)cc(=O)oc2c1 | 18.1
O=C(CN1CCOC1=O)N1CCCC(Nc2ccc(F)c(F)c2)C1 (centres unmarked) | 15.2
COc1ccc(C2C(C(=O)c3ccco3)=C(O)C(=O)N2CCc2ccccc2)cc1OC (centres unmarked) | 1.82
O=C(NCC(c1cccnc1)N1CCN(c2ccccc2)CC1)c1ccco1 (centres unmarked) | 11.6
NC(=O)c1ccccc1NC(=O)CC12CC3CC(CC(C3)C1)C2 | 11
C/C=C/C(=O)OCC(=O)Nc1ccccc1Br | 13
COCCCNC(=O)c1ccc2c3c(onc13)-c1ccccc1C2=O | 11
CCCNC(=O)CN(C)S(=O)(=O)c1c(C)cc(C)cc1C | 10.1
O=C(NCc1ccc2c(c1)OCO2)Nc1cccc2ccccc12 | -5.84
COc1ccccc1CNC(=O)CCCC(=O)n1nc(C)c2ccccc21 | 12.2
O=c1ccc2cc([N+](=O)[O-])c(CCO)cc2o1 | -0.769
CN1CCN(C(=O)c2ccc3ccccc3c2)CC1 | -5.36
Cc1ccc(C2=NN(CCC#N)C(=O)CO2)cc1 | 12.1
CCOc1ccc(C(=S)NC2CCCCC2)cc1OC | 11.1
Cc1ccccc1Nc1nc(N)nc(CSc2nnc(-c3ccccc3)n2C)n1 | 2.19
Cc1cc(NC(=O)CCC(=O)N(CC(=O)NC2CCCC2)Cc2ccc3c(c2)OCO3)no1 | 14.7
O=C(CN1CCN(CCC(=O)Nc2ccccc2F)CC1)Nc1ccc(Cl)cc1 | -84.3
CCOC(=O)C(C)Sc1nc2c(c(-c3cccs3)c1C#N)CCC2 (centres unmarked) | 8.31
COc1ccc(OC)c(CNC(=O)C(C)n2nc(C)c3c(C)n(-c4ccccc4)nc3c2=O)c1 (centres unmarked) | -0.182
Fc1cccc(Cl)c1CSc1nnc(CNc2ccccc2)o1 | 7.21
O=C(CSc1nnc(-c2ccccc2O)o1)Oc1ccc(Br)cc1 | 9.68
Cc1c(C(=O)N/N=C/c2cccc(O)c2)nnn1-c1nonc1N | 1.25
CC(OC(=O)CN1C(=O)c2ccccc2C1=O)C(=O)NC1CCCCC1 (centres unmarked) | 10.7

SMILES | hERG current change (%, negative = inhibition) at 1uM [%]
CCCCn1c(N)c(N(CC)C(=O)c2ccco2)c(=O)[nH]c1=O | 10.9
COc1ccc(CNC(=O)Cc2csc(NC(=O)Nc3ccccc3OC)n2)cc1 | 16
CCC(C)(C)NC(=O)C(c1ccc(F)cc1)N(Cc1ccco1)C(=O)c1snc(C(N)=O)c1N (centres unmarked) | 1.36
Cc1ccc(/C=N/n2c(-c3ccc(Cl)cc3)n[nH]c2=S)s1 | 9.23
CC(=O)c1cc(OC(=O)c2ccncc2)ccc1OC(=O)c1ccncc1 | 16.4
COc1ccc(C(=O)CSc2nnc(-c3ccccn3)n2Cc2ccco2)cc1 | 3.95
COc1ccc(-n2nnnc2SCC(=O)Nc2nnc(C)s2)cc1 | 8.85
Cc1c(C(=O)OCC(=O)NCCc2ccc(S(N)(=O)=O)cc2)oc2ccccc12 | 18.4
COc1ccc(Cc2noc(CN(C)Cc3cccc(-n4cccn4)c3)n2)cc1OC | 5.74
CCC(C(=O)NCCCN1CCN(C)CC1)n1nc(C)n2c(cc3occc32)c1=O (centres unmarked) | 6.8
Cn1c(=Nc2ccccc2)sc2ccccc21 | -1.41
O=C(CN(Cc1ccc(Cl)cc1)C(=O)CNS(=O)(=O)c1ccc(F)cc1)NCC1CCCO1 (centres unmarked) | 14.9
CCOC(=O)c1ccc(NC(=O)C2CC2)cc1 | -10.3
O=C1c2ccccc2C(=O)N1CCc1csc(-c2cccc(Cl)c2)n1 | -10.3
O=[N+]([O-])c1ccc(Sc2nc3ccccc3o2)c([N+](=O)[O-])c1 | 12.1
CC(C)(C)N1C(=O)c2ccccc2NC(=O)N1Cc1ccc(Br)cc1 | 10.3
CC(C)c1nc(SCC(=O)Nc2ccc([N+](=O)[O-])cc2Br)n[nH]1 | -3
O=C(Nc1ccccc1Cl)C1CCCN(S(=O)(=O)c2ccc(-n3cnnn3)cc2)C1 (centres unmarked) | 13
O=C(Nc1ccncc1)C1CCN(S(=O)(=O)c2ccc(Cl)c(C(F)(F)F)c2)CC1 | -5.92
COc1ccc(CNC(=O)C2CCN(S(=O)(=O)c3cc(OC)ccc3OC)CC2)cc1 | 3.55
